Values joined by “and” are separate entries in the source; they are usually repeats but may differ in a detail not shown here. Equal entries are not always repeated. Out of some 220,000 compounds screened, about 16,000 (7.3%) were called active. Inconclusive results, whose numbers are uncertain, are shown with a selection of clear calls. The call rests on the fitted dose curve; in most records, active means well fitted inhibition curve with a large enough effect (not every such curve was filed as active); inconclusive means small, poorly fitted or top-dose-only effect, or another doubt; inactive means no such curve, though single readings can be large or run the other way. A potency beside an inconclusive call is a rough fit, not a confirmed value.
Biological target: Aldehyde dehydrogenase 1A1 (Homo sapiens) (UniProt P00352)
Chain of UniProt P00352 (P00352 whole entry, looked up): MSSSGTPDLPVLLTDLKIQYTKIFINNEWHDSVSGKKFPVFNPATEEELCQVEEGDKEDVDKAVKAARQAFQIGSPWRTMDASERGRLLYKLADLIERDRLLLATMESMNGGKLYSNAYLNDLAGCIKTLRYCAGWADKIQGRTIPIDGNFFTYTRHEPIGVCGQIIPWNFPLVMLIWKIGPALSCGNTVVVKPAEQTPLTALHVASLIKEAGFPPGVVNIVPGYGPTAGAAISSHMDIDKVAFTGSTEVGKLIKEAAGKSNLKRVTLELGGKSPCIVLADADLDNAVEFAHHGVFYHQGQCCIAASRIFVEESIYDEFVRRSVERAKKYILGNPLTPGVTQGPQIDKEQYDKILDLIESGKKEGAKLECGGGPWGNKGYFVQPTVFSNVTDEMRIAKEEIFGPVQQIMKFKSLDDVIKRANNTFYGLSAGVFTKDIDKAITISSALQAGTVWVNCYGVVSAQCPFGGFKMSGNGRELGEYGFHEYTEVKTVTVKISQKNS
Assay: qHTS Assay for Inhibitors of Aldehyde Dehydrogenase 1 (ALDH1A1)
Conditions: Purified ALDH1A1, NADH fluorescence, propionaldehyde substrate; series mostly up to 75.3 µM
Potency means the concentration at half of the fitted maximal effect; tags describe the fitted curve by direction and shape.

Row | SMILES | Potency
1 | COc1cc(/C=C/C(=O)OCC(=O)Nc2c(C)n(C)n(-c3ccccc3)c2=O)ccc1OCC#N | inconclusive: 39.8 µM [inhibitor, single point]
2 | CCOC(=O)N1CCN(S(=O)(=O)c2ccc(OCC(=O)OC)c(C)c2)CC1 | inactive
3 | CCN(CC)c1nc(C)c(C(C)=O)cc1C#N | inconclusive: 22.4 µM [inhibitor, single point]
4 | CCOc1cnc(-c2c(-c3c(Cl)cccc3Cl)noc2C)o1 | inconclusive: 39.8 µM [inhibitor, single point]
5 | O=C(COC(=O)CCC(=O)c1cccs1)Nc1cc(S(=O)(=O)N2CCOCC2)ccc1Cl | active: 22.4 µM
6 | COc1ccc(CCNC(N)=S)cc1OC | inactive
7 | Cn1c(O)c(C=NCC2CCNCC2)c(=O)n(C)c1=O | inactive
8 | Cc1cccc(N/N=C/c2ccccc2O)c1 | active: 25.1 µM
9 | COc1ccc(NC(=O)Cn2c(=O)n(CC3CCCO3)c(=O)c3ccccc32)c(OC)c1 (configuration not stated) | active: 0.0282 µM
10 | Cc1ccc(S(=O)(=O)NC(=O)c2ccc(-c3ccc(-c4ccccc4)cc3)o2)c(C)c1 | inconclusive: 35.5 µM [inhibitor, single point]
11 | CCCC(=O)NC1=C(C#N)C2(CCCCC2)Cc2ccccc21 | inconclusive: 25.1 µM [inhibitor, single point]
12 | COc1ccc(-n2c(C)c(C(C)=O)c3cc(O)ccc32)cc1 | inactive
13 | O=C(COc1ccc(F)cc1Br)N1CCc2ccccc21 | inactive
14 | COC(=O)c1ccc(C2/C(=C(\O)c3cccc(OC)c3)C(=O)C(=O)N2CCCN2CCOCC2)cc1 (configuration not stated) | inconclusive: 39.8 µM [inhibitor, single point]
15 | COc1ccc(NS(=O)(=O)/C=C/c2ccccc2)cc1 | active: 2.51 µM
16 | COc1cc(C(=O)Oc2ccccc2/C=N/NC(=O)c2ccc(C)c(Cl)c2)cc(OC)c1OC | inactive
17 | CSC(=Nc1ccccc1)C1=C(O)COC1=O | active: 25.1 µM
18 | [O-][n+]1c2c(c3c4non(O)c4ccc31)CCCC2 | inactive
19 | C=CCOc1c(Cl)cc(CNc2ccc(N(C)C)cc2)cc1OC | active: 2 µM
20 | O=C(c1csc(Nc2ccccc2Cl)n1)N1CCCC1 | active: 22.4 µM
21 | O=C(c1cc(-c2cccs2)on1)N1CCOCC1 | inactive
22 | CC(=O)NC(C)c1nc2ccccc2n1Cc1ccccc1F (configuration not stated) | inconclusive: 20 µM [inhibitor, single point]
23 | O=C(c1cc(Cl)cc(Cl)c1)N1CCOCC1 | inactive
24 | O=C1CC(NC(=O)C(F)(F)F)c2cc3c(cc21)OCO3 (configuration not stated) | inconclusive: 39.8 µM [inhibitor, single point]
25 | COC(=O)C(C(=O)OC)c1ccccc1[N+](=O)[O-] | inconclusive: 39.8 µM [inhibitor, single point]
26 | N#Cc1cc2c([nH]c1=S)CCCC2 | active: 8.91 µM

Row | SMILES | Potency
27 | CCN(CC)c1ccc(C2C(C(=O)OCCOC)=C(C)NC3=C2C(=O)CCC3)cc1 (configuration not stated) | inconclusive: 20 µM [inhibitor, partial curve, poor fit]
28 | Cc1ccc(-c2nnc(-c3cccs3)o2)cc1 | inconclusive: 39.8 µM [inhibitor, single point]
29 | Cc1cc(/C=C2/C(=O)N(C)C(=S)N2C)ccc1N1CCCC1 | inconclusive: 31.6 µM [inhibitor, single point]
30 | C=CCN(CC=C)C(=O)c1c(OC)cccc1OC | inactive
31 | CN(Cc1ccno1)C(=O)CC1C(=O)NCCN1CC(c1ccccc1)c1ccccc1 (configuration not stated) | inconclusive: 35.5 µM [inhibitor, single point]
32 | CC1CC(=O)N(C)c2ccc([N+](=O)[O-])cc2N1 (configuration not stated) | inconclusive: 25.1 µM [inhibitor, partial curve]
33 | COc1ccccc1N1CCN(C(=O)c2ccc(CSc3ccccc3)cc2)CC1 | inactive
34 | O=C(COc1ccc2ccccc2c1)Nc1cccc(C(=O)Nc2ccccc2C(=O)O)c1 | active: 14.1 µM
35 | Cc1ccc(C(C(=O)NC2CCCC2)N(Cc2cccnc2)C(=O)c2snc(C(N)=O)c2N)o1 (configuration not stated) | inactive
36 | COc1cc2c(c(OC)c1OC)C(c1ccc(C)cc1)CC(=O)O2 (configuration not stated) | inconclusive: 28.2 µM [inhibitor, partial curve]
37 | Cc1ncc([N+](=O)[O-])n1Cc1ccc(F)cc1 | inactive
38 | CN1CCN(C(=O)CSc2nc(-c3cccs3)cc(-c3cccs3)c2C#N)CC1 | inconclusive: 20 µM [inhibitor, partial curve]
39 | CC(C)Oc1ccc(C(=O)N(CN2CCCC2=O)c2ccc(F)cc2)cc1 | inconclusive: 35.5 µM [inhibitor, single point]
40 | O=S(=O)(/N=C(\Sc1ccccc1)c1ccccc1)c1ccc(Cl)cc1 | inconclusive: 39.8 µM [inhibitor, single point]
41 | CCn1nnc(NC(=O)c2sc3ccccc3c2Cl)n1 | active: 3.16 µM
42 | O=C(NCc1ccccc1)c1ccc(/C=N/O)nc1 | inactive
43 | Cc1ccc(C)c(S(=O)(=O)Nc2ccc(C(N)=O)cc2)c1 | inconclusive: 39.8 µM [inhibitor, single point]
44 | CC(C)C(OC(=O)c1cccs1)C(=O)NCc1cccs1 (configuration not stated) | inconclusive: 28.2 µM [inhibitor, single point]
45 | CNC(=O)CSc1nnnn1-c1cc(C)ccc1C | inconclusive: 25.1 µM [inhibitor, single point]
46 | Cn1c(=O)n(C)c2cc([N+](=O)[O-])c(N3CCN(S(=O)(=O)c4ccccc4)CC3)cc21 | inconclusive: 23.8 µM [inhibitor, single point]
47 | O=C(COC(=O)c1cccnc1)c1ccc(Cl)cc1 | inconclusive: 28.2 µM [inhibitor, single point]
48 | CCCOC(=O)/C(=C\C=C\c1ccco1)NC(=O)c1ccccc1 | active: 20 µM
49 | CCCOc1ccc(C(C)=O)cc1CN1CCOCC1 | inactive
50 | O=C1S/C(=C/c2ccc(N3CCOCC3)o2)C(=O)N1Cc1c(F)cccc1Cl | active: 0.126 µM
51 | Cc1ccc(-c2nnc(NCc3ccccc3)c3ccccc23)cc1 | inactive
52 | Cc1cc2sc3ccccc3c(=O)c2c(C)c1O | inconclusive: 39.8 µM [inhibitor, single point]

Row | SMILES | Potency
53 | CSc1ccccc1C(=O)C1CCCN(Cc2cnn(-c3ccccc3)c2)C1 (configuration not stated) | inconclusive: 39.8 µM [inhibitor, single point]
54 | CSc1nc(-c2ccccc2)nn1C(=O)c1ccc(C)cc1 | inconclusive: 31.6 µM [inhibitor, partial curve]
55 | N#Cc1nc(-c2ccco2)oc1N1CCC(Cc2ccccc2)CC1 | inconclusive: 28.2 µM [inhibitor, partial curve]
56 | CCCCCCCCC[n+]1cccc2c3ccccc3ccc21 | inconclusive: 28.2 µM [inhibitor, partial curve]
57 | COC(=O)c1ccccc1NC(=O)CN1CCN(C(=O)c2ccco2)CC1 | inconclusive: 39.8 µM [inhibitor, single point]
58 | O=Cc1ccccc1Cl | inactive
59 | Nc1cc(C(=O)O)ccc1Nc1ccccc1 | inconclusive: 35.5 µM [inhibitor, single point]
60 | Cc1ccc(OCCN2CCN(C)CC2)c([N+](=O)[O-])c1 | inconclusive: 25.1 µM [inhibitor, single point]
61 | N#CNc1nc(O)cc(=O)[nH]1 | inactive
62 | c1coc(C2=Nc3cccc4cccc(c34)N2)c1 | inconclusive: 39.8 µM [inhibitor, single point]
63 | N=c1c(C(=O)NCc2ccc(F)cc2)cc2c(=O)n3ccccc3nc2n1CCCN1CCOCC1 | inconclusive: 14.1 µM [inhibitor, partial curve]
64 | Cn1c(N)c(C(=O)COC(=O)c2cc(-c3ccco3)nc3ccccc23)c(=O)n(C)c1=O | inconclusive: 11.2 µM [inhibitor, partial curve] and inconclusive: 12.6 µM [inhibitor, partial curve]
65 | CCOc1ccccc1NC(=S)NCCc1ccccc1 | inactive
66 | Cc1c(NC2(C#N)CCCCC2)c(=O)n(-c2ccccc2)n1C | inconclusive: 12.6 µM [inhibitor, partial curve, poor fit]
67 | CCOc1cc(C(=O)NC(C)c2ccncc2)cc(OCC)c1OCC (configuration not stated) | inactive
68 | S=C(NNC(=S)NC1CC2C=CC1C2)NC1CC2C=CC1C2 (configuration not stated) | active: 12.6 µM
69 | O=C(Nc1nnc(-c2ccco2)o1)c1ccc(S(=O)(=O)N2CCOCC2)cc1 | inconclusive: 39.8 µM [inhibitor, single point]
70 | CCC1=NN2C(=N)/C(=C/c3cc(C)n(Cc4ccccc4)c3C)C(=O)N=C2S1 | inactive
71 | Cc1cc2nc(C)n(CCCNC(=O)Nc3cccc4ccccc34)c2cc1C | inactive
72 | CCCn1c(C)nc2c(N(CCN(C)C)Cc3ccccc3)nc(C)nc21 | inactive
73 | Cc1cc(NC(=O)CSc2ccc3nnc(-c4ccccn4)n3n2)no1 | inconclusive: 37.7 µM [inhibitor, single point]
74 | Cc1ccc(OCC(=O)N/N=C/C=C/c2ccco2)cc1C | inconclusive: 31.6 µM [inhibitor, single point]
75 | CCC(C)n1c(=O)c(C(=O)Nc2ccccc2S(N)(=O)=O)c(O)c2ccccc21 (configuration not stated) | inconclusive: 39.8 µM [inhibitor, single point]
76 | COc1ccc(O[C@H]2C=C[C@@H](c3ccccc3)O[C@@H]2CO/N=C(\C)CCC(=O)OC[C@H]2O[C@H](c3ccccc3)C=C[C@@H]2Oc2ccc(OC)cc2)cc1 | inconclusive: 39.8 µM [inhibitor, single point]
77 | O=C(c1ccc(C(=O)N2CCCc3ccccc32)s1)N1CCCc2ccccc21 | inconclusive: 12.6 µM [inhibitor, partial curve]
